# Experimental data: PubChem BioAssay AID686978 (National Center for Advancing Translational Sciences (NCATS), 2013)
# Where “and” joins values, the source holds several entries; their conditions need not be identical. Equal values may be shown once. Hit rate of the full screen: of about 420,000 compounds, about 64,000 (15%) were called active. This list was built around the results that the source calls inconclusive (neither active nor inactive); the mix of calls is not that of the screen. Calls follow the shape of the dose curve; as a rule, active = well fitted inhibition curve with a large enough effect; inconclusive = small, poorly fitted or top-dose-only effect; inactive = flat fitted curve, though single readings scatter. Potencies of inconclusive entries are doubtful fits and often do not repeat.
# Assay: qHTS for Inhibitors of human tyrosyl-DNA phosphodiesterase 1 (TDP1): qHTS in cells in absence of CPT; also: nearly all actives have a fitted effect of over 55% in size
# Conditions: DT40 Tdp1-/- hTDP1 cells, no CPT, ATP luminescence, 48 h; activity change, negative = growth inhibition: at 46.2 µM (top of the series) unless noted
# Outline: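 Seeded 400 DT40-hTDP1 cells/well (vehicle DMSO, no 20 nM CPT); pinned compounds; ≥48 hr at 37 °C; CellTiter-Glo luminescence as viability measure.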
# % is scaled to controls: 0 for no effect and ±100 for the full control effect; potency is read from the fitted curve at half-maximal effect; tags tell the direction and shape of the fitted curve.
Compound,Potency,"activity change, negative = growth inhibition"
O=C(Nc1ccc(F)cc1)N(CCCN1CCOCC1)Cc1cc2cc3c(cc2[nH]c1=O)OCCO3,"inconclusive: 23.1 µM [inhibitor, partial curve]",
Cc1ccc(S(=O)(=O)N2CCOCC2)cc1C(=O)NC1CCCC1,inactive,
CCOC(=O)c1c(NC(=O)c2cc(C(C)C)on2)sc(C(C)=O)c1C,"inconclusive: 23.1 µM [inhibitor, single point]",
COc1ccc(Nc2nc3ccccc3nc2NS(=O)(=O)c2cccs2)cc1,"inconclusive: 23.1 µM [inhibitor, single point]",
COc1cc2c(cc1[N+](=O)[O-])-c1ccc([N+](=O)[O-])cc1C2=NNC(N)=S,active: 7.31 µM,
CCN(Cc1ccc(OC)c(F)c1)C(=O)c1cc2ccccc2o1,"inconclusive: 23.1 µM [inhibitor, single point]",
CCc1ccccc1NC(=O)Cn1nc(C(F)(F)F)cc1C1CC1,inactive,
CCCOC(=O)C(C)n1cnc2sc(C)c(C)c2c1=O (stereo unspecified),"inconclusive: 29.1 µM [inhibitor, single point]",
COc1ccc(CC(=O)Nc2ccc3nc(Nc4ccc(OC)cc4)cc(C)c3c2)cc1,active: 23.1 µM,
C/C(=N\NC(=O)c1ccc(Br)cc1)C1C(=O)c2ccccc2C1=O,inactive,
O=C(O)c1cccc(S(=O)(=O)Nc2ccc(-c3ccccc3)cc2)c1,inactive,
COC(=O)c1ccc(NC(=O)c2ccc3nccnc3c2)cc1,active: 29.1 µM,
O=C(NC1CC(=O)N(c2ccc(F)cc2)C1)c1ccc(S(=O)(=O)N2CCCCC2)cc1 (stereo unspecified),"inconclusive: 18.4 µM [inhibitor, partial curve]",
COc1ccc(NS(=O)(=O)c2cccc(C(=O)NCC(c3ccco3)N3CCCCC3)c2)cc1 (stereo unspecified),"inconclusive: 25.9 µM [inhibitor, single point]",
O=C(COC(=O)c1ccc(F)cc1)Nc1cc(S(=O)(=O)N2CCOCC2)ccc1N1CCCC1,inactive,
O=c1c2sc3ccccc3c2n(Cc2cccc(F)c2)c(=O)n1Cc1ccccc1,active: 16.4 µM,
Cc1c(C(=O)NCc2ccc(Cl)c(Cl)c2)sc(=O)n1Cc1ccc(C(=O)N(C)C)cc1,active: 10.3 µM,
COc1ccc(C(=O)CSc2nnc(-c3cccnc3)n2Cc2ccco2)cc1,"inconclusive: 23.1 µM [inhibitor, partial curve]",
N#Cc1nc(N2CCCCC2)nc(N2CCCCC2)n1,active: 12.6 µM,
COc1ccc(N2CCN(CCNC(=O)Nc3cc(Cl)ccc3Cl)CC2)cc1,inactive,
CC(=O)Oc1cc(OC(C)=O)c2c(c1)OC(c1ccc(OC(C)=O)c(OC(C)=O)c1)C(OC(C)=O)C2 (stereo unspecified),"inconclusive: 20.6 µM [inhibitor, single point]",
Cc1cccc2c3nc4ccccc4nc3n(C)c12,"inconclusive: 16.4 µM [inhibitor, single point]",
Cc1noc(C)c1COc1ccc(C(=O)N2CCN(S(=O)(=O)c3cccc(F)c3)CC2)cc1,inactive,
CCN(c1cccc(C)c1)S(=O)(=O)c1cc2c3c(c1)CCN3C(=O)CC2,active: 14.6 µM,

Compound,Potency,"activity change, negative = growth inhibition"
COc1ccccc1N(C(=O)NCc1ccccc1)C1=NCC(C)S1 (stereo unspecified),"inconclusive: 18.4 µM [inhibitor, single point]",
Cc1ccc2c(c1Br)C(O)(CC(=O)c1ccc(F)cc1)C(=O)N2 (stereo unspecified),"inconclusive: 29.1 µM [inhibitor, single point]",
COc1cccc2cc(-c3cn4cccc(C)c4n3)c(=O)oc12,"inconclusive: 13 µM [inhibitor, single point]",
Cc1cccnc1CCNC(=O)CCc1nnc(CCc2ccccc2)o1,inactive,
COc1ccccc1N1CCN(c2nc3c(C)cccn3c(=O)c2C=O)CC1,inactive,
O=Cc1ccc(N2CCCC2)c(F)c1,inactive,
C=CC[C@@H]1/C=C(\C)C[C@H](C)C[C@H](OC)[C@H]2O[C@@](O)(C(=O)C(=O)N3CCCC[C@H]3C(=O)O[C@H](/C(C)=C/[C@@H]3CC[C@@H](O)[C@H](OC)C3)[C@H](C)[C@@H](O)CC1=O)[C@H](C)C[C@@H]2OC,active: 2.99 µM,
CSc1ccc(C(=O)C2CCCN(C(=O)c3cc4cc(F)ccc4[nH]3)C2)cc1 (stereo unspecified),active: 18.4 µM,
Cc1c(NC(=O)/C(C#N)=C/c2ccc(-c3ccc(Cl)c(Cl)c3)o2)c(=O)n(-c2ccccc2)n1C,active: 13 µM,
O=[N+]([O-])c1ccccc1NCCNc1ncc(C(F)(F)F)cc1Cl,"inconclusive: 23.1 µM [inhibitor, single point]",
O=c1c(CCc2ccccc2)nc2cnc(N3CCOCC3)nc2n1CCc1ccccc1,inactive,
Cc1ccc(-n2c3c(cc(C(=O)O)c2=O)C(=O)CC(C)(C)C3)cc1,inactive,
CCOC(=O)c1ccc(N2C(=O)c3[nH]nc(-c4ccccc4)c3C2c2ccc(CC)cc2)cc1 (stereo unspecified),active: 18.4 µM,
Cc1c(C=O)c2ccccc2n1CC(=O)N1CCc2ccccc2C1,"inconclusive: 11.6 µM [inhibitor, partial curve]",
CC1CC(C)CN(C(=O)c2ccc(C(=O)c3ccccc3)cc2)C1 (stereo unspecified),"inconclusive: 29.1 µM [inhibitor, single point]",
COc1ccc(C(=O)N2N=C3CC(C)(C)OCC3C2c2ccccc2)cc1 (stereo unspecified),inactive,
COc1cc(CO)c(OC)c([N+](=O)[O-])c1,inactive,
CC(C)(C)C1CCC(=O)N(CCSc2ccccc2)CC1 (stereo unspecified),"inconclusive: 20 µM [inhibitor, single point] and inconclusive: 29.1 µM [inhibitor, single point]",
Cc1ccc2oc(C(=O)NCCCN3CCOCC3)c(C)c2c1,"inconclusive: 29.1 µM [inhibitor, single point]",
CCC(=O)NCC(c1cccs1)S(=O)(=O)c1ccc(C)cc1 (stereo unspecified),inactive,
O=C(Cn1c(=O)n(Cc2nc(-c3ccccc3)no2)c(=O)c2ccccc21)Nc1cccc(C(F)(F)F)c1,active: 20.6 µM,
O=C(c1ccc2c(c1)N(Cc1ccccc1F)C(=O)c1ccccc1S2(=O)=O)N1CCC(Cc2ccccc2)CC1,active: 20.6 µM,
COc1ccc(-c2cc(C(=O)Nc3c(C(=O)c4ccc(C)cc4)oc4ccccc34)no2)cc1,inactive,
O=S(=O)(Nc1ccc2c3c(cccc13)CC2)c1ccc(F)cc1,"inconclusive: 25.9 µM [inhibitor, single point]",

Compound,Potency,"activity change, negative = growth inhibition"
S=c1[nH]c(-c2cccs2)cn1-c1ccccc1,inactive,
CCc1cc2cc(C)ccc2nc1SCC(=O)Nc1cc(C)on1,inactive,
COc1ccc(NC(=O)CSc2nc3ccccc3c(=O)n2CCC(=O)N2CCCCC2)cc1,"inconclusive: 20.6 µM [inhibitor, single point]",
O=C(CN(Cc1ccco1)C(=O)c1ccc(Cl)cc1)Nc1ccc(Cl)c(Cl)c1,,inconclusive: -33.1% [inhibitor]
CC(C)c1onc(C(=O)Nc2cccc(Cl)c2)c1[N+](=O)[O-],,inconclusive: -33.6% [inhibitor]
CCNC(=O)NC(=O)CSc1nnc(-c2c[nH]c3ccccc23)o1,"inconclusive: 16.4 µM [inhibitor, partial curve, poor fit]",
COCCN(C(=O)CCCc1nc2ccccc2s1)c1c(N)n(CC(C)C)c(=O)[nH]c1=O,inactive,
CCCCOC(=O)Nc1nc(CC(=O)OCC)cs1,,inconclusive: -25% [inhibitor]
O=C(NCC1(N2CCOCC2)CCCCC1)c1cnn(-c2nccc(-c3ccco3)n2)c1C1CC1,"inconclusive: 16.4 µM [inhibitor, single point]",
CCN(CC)c1ccc(NS(=O)(=O)c2ccc3c(c2)oc(=O)n3C)c(C)c1,"inconclusive: 25.9 µM [inhibitor, single point]",
CCN(C(=O)c1cc2c(=O)n3ccccc3nc2n1C)C1CCCCC1,"inconclusive: 14.6 µM [inhibitor, single point]",
COc1cccc(/C=N/n2c(C3CCCCC3)n[nH]c2=S)c1,"inconclusive: 20.6 µM [inhibitor, single point]",
COc1cc(OC)c(-c2nc(-c3ccncc3)no2)cc1OC,active: 16.4 µM,
CC1C(=O)Nc2ccc(S(=O)(=O)N3CCCCC3)cc2NC1=O (stereo unspecified),"inconclusive: 4.61 µM [inhibitor, full curve, poor fit]",
Cc1cc(C)cc(NC(=O)C(Sc2ncnc3ccccc23)c2ccccc2)c1 (stereo unspecified),"inconclusive: 29.1 µM [inhibitor, single point]",
COCCCNC(=O)c1cccc2c(-c3ccc(OC)cc3C)coc12,"inconclusive: 23.1 µM [inhibitor, single point]",
CCCN(CC(=O)Nc1ccccc1C)C(=O)c1ccc(N2CCCC(C)C2)c([N+](=O)[O-])c1 (stereo unspecified),"inconclusive: 29.1 µM [inhibitor, single point]",
Cc1cccc(N/N=C/c2ccc(C)s2)c1,"inconclusive: 20.6 µM [inhibitor, single point]",
CC1=C(c2ccc(Cl)cc2)S(=O)(=O)NC1=NCCCN1CCN(c2cc(C)ccc2C)CC1,active: 5.17 µM,
COc1ccc(OC)c2c(C)ccnc12,"inconclusive: 31.6 µM [inhibitor, single point]",
CCC(CC)C(=O)OCc1cc(=O)n2nc(C3CC3)sc2n1,"inconclusive: 14.6 µM [inhibitor, partial curve]",
CCN(CC)Cc1c(C)[nH]c2ccc(NC(C)=O)cc2c1=O,inactive,
Cc1ccc(NC(=O)COc2ncnc3ccccc23)cc1S(=O)(=O)N1CCOCC1,"inconclusive: 29.1 µM [inhibitor, single point]",
